According to PubChem BioAssay AID1794842 (National Center for Advancing Translational Sciences (NCATS), 2023):
Fewer than 10 of roughly 2,800 compounds were called active. The call rests on the fitted dose curve; in most records, active means well fitted curve in the direction sought with a large enough effect; inconclusive means small, poorly fitted or top-dose-only effect, or another doubt; inactive means no such curve, though single readings can be large or run the other way. The list shows a part of the results.

The compounds below were run against Metallo-beta-lactamase type 2 (Klebsiella pneumoniae) (UniProt C7C422) (assay: qHTS to identify inhibitors of the New Delhi Metallo-beta-lactamase (NDM): Meropenem screen against the machine-based learning selections.). Conditions: Purified NDM-1, meropenem hydrolysis, absorbance 300 nm; at 38.4 µM (top of the series) unless noted.
Chain of UniProt C7C422 (C7C422 whole entry, looked up): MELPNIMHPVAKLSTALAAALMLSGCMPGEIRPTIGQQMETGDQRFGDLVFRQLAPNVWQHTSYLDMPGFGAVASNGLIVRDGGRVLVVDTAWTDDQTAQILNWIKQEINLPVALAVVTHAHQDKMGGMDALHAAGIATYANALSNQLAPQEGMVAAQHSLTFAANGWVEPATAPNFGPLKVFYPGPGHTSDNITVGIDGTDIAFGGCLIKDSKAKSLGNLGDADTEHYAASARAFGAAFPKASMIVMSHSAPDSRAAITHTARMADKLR
Summary of the method: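 Hydrolysis by 2 nM NDM-1 was followed by absorbance after >30 min compound preincubation in HEPES pH 7.0 buffer with 1 uM Zn2SO4. For nitrocefin (16.7 uM, 15 min, 485 nm) and meropenem (50 uM, 30 min, 300 nm), each substrate ran on separate plates.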
Further: % of control where 0% means no effect.

Activity change, negative = inhibition, inactive:
OC1(c2csc(CN3CCOCC3)n2)CCN(CC2CCCCC2)CC1 -0.222% [at 57.5 µM], Cc1nc2c(c(-c3ccc(Cl)cc3)n1)CCN(C(=O)C1CC1)CC2 0.249%, O=C(O)c1cncc(N2CCC3(CC2)CNC(C(=O)O)C3)n1 (stereo not given) 42.7%, O=C(NC1CCCCC1)O[C@@H]1CO[C@H]2[C@@H]1OC[C@@H]2NS(=O)(=O)c1ccc(Cl)cc1 -0.326%, COc1ccc(CC(=O)N(C)Cc2ccc(F)cc2)cc1 -0.957% [at 57.5 µM], Cc1ccc(-c2cn3c(n2)CO[C@@H](CNS(=O)(=O)c2cccs2)C3)cc1 -1.65% [at 57.5 µM], O=C(O)c1cccc(-c2n[nH]c3c2CC(=O)N(CC2CCOCC2)C3)c1 18.9% [at 57.5 µM], Cc1nc(CN2CCN(c3ncc(F)c(N(C)C)n3)CC2)cs1 27.7%, C=CCN1CCN(C(=O)[C@@H]2Cc3c[nH]c4cccc(c34)[C@H](CC(C)C)N2)CC1 4.68% [at 57.5 µM], O=C(NC1CCN(c2cc(-c3ccc(F)cc3)[nH]n2)CC1)c1cccc2[nH]ccc12 0.993%, CN(C)c1ccc(C(=O)N2CCN3C(=O)N(Cc4ccccc4)C(=O)[C@H]3C2)cc1 11.3% [at 57.5 µM], CCOCC(=O)N[C@H]1CN(Cc2nc(C)c(C)n2C)C[C@@H]1C(C)C 28.1%, c1ccc(-c2nc3ccncc3[nH]2)nc1 104% [at 76.7 µM], Cc1ccc2c(c1)N1C(=O)OC[C@@H]1CCN(C(=O)Nc1ccccc1)C2 -2.46% [at 57.5 µM], CC1=C[C@@H](CNCc2ccc(C#N)cc2)[C@H](C(C)C)C[C@H]1Cc1nnc(-c2cccnc2)o1 1.16%, CCOCCn1c(=O)[nH]c2cc(C(=O)NCc3cc(=O)[nH]c(C)n3)ccc21 6.67%, CC(C)C(=O)N[C@H]1[C@H](O)[C@H](O)C[C@@H]1c1cccnc1 -2.43% [at 76.7 µM], O=C(N[C@H]1CO[C@H]2[C@@H]1OC[C@@H]2n1nnnc1-c1ccc2c(c1)OCO2)c1ccc(C(F)(F)F)cc1 1.02%, CN1C(=O)CO[C@H](c2ccc(NC(=O)c3ccc(-c4ccccc4)cc3)cc2)[C@H]1CO 0.168% [at 57.5 µM], C=CCNC(=O)[C@@H]1Cc2cn(Cc3c(C)noc3C)c3cccc(c23)[C@H](CC(C)C)N1 6.46% [at 57.5 µM]
